What follows are molecules tested against D2 dopamine receptor (Homo sapiens, UniProt P14416) (assay: biochemical).
Sequence of UniProt P14416 (P14416 whole entry): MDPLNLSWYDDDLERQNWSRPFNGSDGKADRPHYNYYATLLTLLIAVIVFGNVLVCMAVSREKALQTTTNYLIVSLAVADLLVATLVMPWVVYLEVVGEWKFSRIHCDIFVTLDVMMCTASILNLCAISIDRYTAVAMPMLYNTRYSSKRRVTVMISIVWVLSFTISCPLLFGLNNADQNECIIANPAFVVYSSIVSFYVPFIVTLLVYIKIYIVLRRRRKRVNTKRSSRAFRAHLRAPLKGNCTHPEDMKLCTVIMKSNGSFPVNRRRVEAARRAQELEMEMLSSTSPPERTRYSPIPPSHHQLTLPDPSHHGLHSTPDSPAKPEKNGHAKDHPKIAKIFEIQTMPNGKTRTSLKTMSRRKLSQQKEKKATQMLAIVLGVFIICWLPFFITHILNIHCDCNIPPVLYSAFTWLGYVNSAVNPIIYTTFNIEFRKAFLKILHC
`CCCCN1CCN(c2ccccc2F)CC1` [Compound 3a] showed a Ki of 0.384 ± 0.0396 µM.
Molecule `CCCCN1CCN(c2cccc(F)c2)CC1` [Compound 3b] has a Ki of 2.52 ± 0.252 µM.
Molecule `CCCCN1CCN(c2ccc(F)cc2)CC1` [Compound 3c] has a Ki of 3.09 ± 0.269 µM.
`CCCCN1CCN(c2cc(C#N)ccc2F)CC1` [Compound 3d] was tested, and the Ki was 5.43 ± 1.06 µM.
With `CCCCN1CCN(c2ccc(C(F)(F)F)cc2F)CC1` [Compound 3e] the Ki was 7.52 ± 0.466 µM.
Molecule `CCCCN1CCN(c2ccc(F)cc2OCCF)CC1` [Compound 3f] has a Ki of 0.349 ± 0.0211 µM.
For `O=C(NCCCCN1CCN(c2ccccc2F)CC1)c1ccc(-c2ccsc2)cc1` [Compound 6a], the Ki was 0.648 ± 0.1 µM.
In the case of `O=C(NCCCCN1CCN(c2cccc(F)c2)CC1)c1ccc(-c2ccsc2)cc1` [Compound 6b], the Ki is reported as 2.33 ± 0.485 µM.
In the case of `O=C(NCCCCN1CCN(c2ccc(F)cc2)CC1)c1ccc(-c2ccsc2)cc1` [Compound 6c], the Ki is reported as 7.2 ± 0.215 µM.
For `N#Cc1ccc(F)c(N2CCN(CCCCNC(=O)c3ccc(-c4ccsc4)cc3)CC2)c1` [Compound 6d], the Ki was 4.5 ± 0.565 µM.
`O=C(NCCCCN1CCN(c2ccc(C(F)(F)F)cc2F)CC1)c1ccc(-c2ccsc2)cc1` [Compound 6e] showed a Ki greater than 75 µM.
`O=C(NCCCCN1CCN(c2ccc(F)cc2OCCF)CC1)c1ccc(-c2ccsc2)cc1` [Compound 6f] gave a Ki of 0.411 ± 0.0273 µM.
`O=C(NCCCCN1CCN(c2ccccc2F)CC1)c1ccc(-c2cscn2)cc1` [Compound 7a] showed a Ki of 0.478 ± 0.071 µM.
Work on `O=C(NCCCCN1CCN(c2cccc(F)c2)CC1)c1ccc(-c2cscn2)cc1` [Compound 7b] yielded a Ki of 3.95 ± 0.146 µM.
For `O=C(NCCCCN1CCN(c2ccc(F)cc2)CC1)c1ccc(-c2cscn2)cc1` [Compound 7c], the Ki was 4.01 ± 0.694 µM.
With `N#Cc1ccc(F)c(N2CCN(CCCCNC(=O)c3ccc(-c4cscn4)cc3)CC2)c1` [Compound 7d] the Ki was 7.72 ± 1.5 µM.
Work on `O=C(NCCCCN1CCN(c2ccc(C(F)(F)F)cc2F)CC1)c1ccc(-c2cscn2)cc1` [Compound 7e] yielded a Ki greater than 40 µM.
`O=C(NCCCCN1CCN(c2ccc(F)cc2OCCF)CC1)c1ccc(-c2cscn2)cc1` [Compound 7f] showed a Ki of 0.349 ± 0.0503 µM.

— PMC8198181, “Evaluation of Substituted N-Phenylpiperazine Analogs as D3 vs. D2 Dopamine Receptor Subtype Selective Ligands” (Molecules, 2021)
